The full ranking holds about 13,000 compounds; the median of “IFI” is about 4, and the highest 2% start at about 17. Some of the results follow.

The assay in a line: GSK_TCMDC: Inhibition Frequency Index (IFI). The number of non-kinase HTS assays where a compound showed > 50 % inhibition, expressed as a percentage of the number of such assays in which the compound was tested (-0 is zero). The class given is functional.
The molecule `c1ccc(Oc2ccc(Nc3ccnc(Nc4ccc(CN5CCOCC5)cc4)n3)cc2)cc1` had an IFI of 20.2%.
Take `COc1ccc(C2CCN(CCCCNC(=O)c3ccc(NC(=O)c4ccc(Cl)cc4)cc3)CC2)c(C)c1`: the IFI was determined as 3.03%.
`O=C(Cn1c(CCc2cccc(F)c2F)cc(=O)c2cccnc21)N(CCCn1ccnc1)Cc1ccc(-c2ccc(C(F)(F)F)cc2)cc1`: the IFI was determined as 2.27%.
Take `O=S(=O)(c1ccc(OCc2ccc(Cl)cc2)cc1)c1cc2c(cc1OCc1ccccc1)CCN(CC1CC1)CC2`: the IFI came out at 7.46%.
As to `CCOC(=O)c1nc(-c2ccccc2)[nH]c1NC(=S)NC1CCCCC1`, the IFI was -0%.
Turning to `O=C(NC1CCC(CCN2Cc3cccc(C(F)(F)F)c3C2)CC1)c1cccc(-c2cccnc2)c1` (centres undefined), the IFI amounted to 2.92%.
Turning to `Cc1cccc(NC(=O)N(Cc2cc3cc(C)cc(C)c3[nH]c2=O)C2CC2)c1`, the IFI was determined as 0.71%.
`CCOC(=O)NOC(C(=O)O)c1ccccc1` (centres undefined) gave an IFI of 0%.
Turning to `CN1CCN(C(=O)CN2CCC3(CCC2=O)NC(=O)c2ccccc2O3)CC1` (centres undefined), the IFI was 0%.
As for `CCC1CN2CCc3c([nH]c4ccccc34)C2CC1CC1=NCCc2c1[nH]c1ccccc21` (centres undefined), the IFI is 5.15%.
As for `O=C(/C=C/c1ccc(F)cc1)NC1CCC(CCN2CCc3ccc(-n4cccn4)cc3CC2)CC1` (centres undefined), the IFI came to 2.96%.
The molecule `COc1cccc2cc(C(=O)N[C@@H](CC(C)C)C(=O)N[C@H](C=NN3CCCC3=O)Cc3ccccc3)oc12` had an IFI of 1.82%.
In the case of `COc1ccc(CCn2c(C3CCCCC3)nc3oc4ccccc4c(=O)c3c2=O)cc1`, the IFI is 10.3%.
Turning to `[O-][S+]1c2ccccc2Sc2ccccc21`, the IFI stood at 1.48%.
`Cc1ccc(OC2CCN(c3ccc(C(=O)NC4CC4)cn3)CC2)cc1` displayed an IFI of 3.92%.
In turn, `c1cncc(Oc2ccc(Nc3ccnc4cc(-c5cccc(CNCCN6CCOCC6)c5)ccc34)cc2)c1` yielded an IFI of 8.89%.
`O=C(Nc1ccc(I)cc1)Nc1ccc(Cn2ncc(N3CCCNCC3)c(Cl)c2=O)cc1` returned an IFI of 7.35%.
On to `N#Cc1ccc2c(c1)CCN(CCC1CCC(NC(=O)Nc3ccncc3)CC1)C2` (centres undefined), for which the IFI was 1.4%.
Molecule `CN1CCN(CCCN(Cc2cccc(-c3cccc(CNCCc4ccccc4)c3)c2)C(=O)Nc2ccccc2)CC1` returned an IFI of 8.7%.
In turn, `Cc1cccc2nc(-c3ccc(-c4ccc(CN5CCN(c6ccncc6)CC5)cc4)s3)[nH]c12` registered an IFI of 11.3%.
`CN1CCN(c2ccc(-c3cccc(NC(=O)c4ccc5ccccc5c4)c3)nn2)CC1` gave an IFI of 14.1%.
Molecule `CCOc1cc(C(=O)Nc2cccnc2)cc(Br)c1OCCC(C)C` displayed an IFI of 3.17%.
In the case of `COc1ccc(-c2cccc(NC(=O)c3ccc(Cl)cc3)c2)cc1CNC(C)C`, the IFI was found to be 3.88%.
As to `FC(F)(F)c1ccc2[nH]c(-c3ccc(-c4ccc(CN5CCN(c6ccncc6)CC5)cc4)s3)nc2c1`, the IFI worked out at 11.5%.
Molecule `COC(=O)c1sc2ccccc2c1NC(=O)c1ccc(C)c(C)c1` registered an IFI of 1.4%.
In turn, `Cc1cccc2nc(-c3cccc(-c4ccc(CNCc5ccc(S(C)(=O)=O)cc5)cc4)c3)[nH]c12` gave an IFI of 3.88%.
In the case of `O=C(NCc1ccccc1)Nc1ccc(-c2cccc(-c3nc4cc(C(F)(F)F)ccc4[nH]3)c2)cc1`, the IFI is 6.93%.
Under `CCN(CC)c1nc(-c2ccccc2)cc(-c2ccccc2)c1C#N` stands 3.01%; under `COc1ccc(CNC2CCN(C)CC2)cc1-c1ccc(S(=O)(=O)NCCc2ccccn2)c(F)c1`, 1.89%.
In the case of `COc1ccc(CNC(=O)Nc2cc3cc(-c4ccc(CN(C)C)cc4)ccc3n3c(C)nnc23)cc1` it was 11.4%; in that of `Cc1cccc2nc(-c3cccc(-c4ccc(CNCCCN5CCCC5=O)cc4)c3)[nH]c12`, 2.94%; in that of `COc1cccc(CN2CCCC(CCC(=O)Nc3ccc(C(F)(F)F)cc3)C2)c1O` (centres undefined), 2.44%.
As to `CCCCCCN1CCCN(Cc2ccc(C(=O)Nc3ccc(CCC)cc3)cc2)CC1`, the IFI stood at 16.8%.
`Cc1ccc(NC(=O)c2ccc3ncccc3c2)cc1OC1CCN(CCC(C)C)C1` (centres undefined) displayed an IFI of 1.64%.
`CN(C)c1cc(C(=O)N[C@@H](Cc2ccccc2)[C@H](O)CNC2CCCCC2)cc2[nH]ccc12` came in with an IFI of 3.88%.
Under `CCOC(=O)c1c(NC(NC(=O)c2ccc(C(C)(C)C)cc2)C(Cl)(Cl)Cl)sc2c1CCCC2` (centres undefined) stands 1.54%.
`CS(=O)(=O)NCCCNCc1cccc(-c2ccc(-c3nc4ccccc4[nH]3)s2)c1` registered an IFI of 3%.
`c1cc(CNC2CCCC2)cc(-c2ccc(CNc3ccc4ncccc4c3)cc2)c1` showed an IFI of 14.2%.
`CC(C)(C)c1ccc(CN2CCC(CNC(=O)c3cc(-c4ccccc4)nc4ccccc34)CC2)cc1` came in with an IFI of 3.17%.
With `CN(C(=O)c1ccc(Br)cc1)c1ccccc1[N+](=O)[O-]`, the IFI is -0%.
On to `Nc1cc(-c2cc3c(OCc4ccccc4)cccc3[nH]2)ccn1`, for which the IFI was -0%.
`CCN(CC)CCN(Cc1ccc(-c2ccc(C(F)(F)F)cc2)cc1)C(=O)Cn1c(CCc2cccc(F)c2F)nc(=O)c2sccc21` had an IFI of 12.6%.
`CCn1c(-c2nc(-c3ccc4c(c3)OCO4)cnc2N)nc2cnccc21` returned an IFI of 12.3%.
Under `Cc1sc2nc(CSc3ccccc3)nc(N3CCN(CC(=O)NC4CC4)CC3)c2c1C` stands 2.99%; under `COc1cccc(C2CCN(CCCCNC(=O)c3ccc(NC(=O)c4ccc(Cl)cc4)cc3)CC2)c1`, 0.76%; under `Nc1nc(N)c2c(ccc3c2ccn3Cc2ccc(F)cc2)n1`, 11.3%.
As for `O=S(=O)(NCCN1CCCC1)c1cccc(-c2cccc(CNCc3ccsc3)c2)c1`, the IFI amounted to 9.8%.
In the case of `CC1CN(Cc2ccccc2)CCN1c1ccc(NC(=O)c2ccc(F)cc2)cc1` (centres undefined), the IFI is -0%.
Consider `CC(C)NCc1cccc(-c2ccc(-c3nc4cc(C(F)(F)F)ccc4[nH]3)cc2)c1`, for which the IFI was found to be 3.85%.
Molecule `CC(C)(C)OC(=O)n1cc(C2CCN(CCCC34CCCc5cccc(c53)NC4=O)CC2)c2ccncc21` (centres undefined) displayed an IFI of 6.62%.
`C=C[C@H]1CN(CCCCCCC)CC[C@H]1CCN(C)c1ccnc2ccc(OC)cc12` returned an IFI of 6.57%.
In turn, `O=C(O)Cc1ccc(-c2c[nH]c3ncc(-c4cccc5ncccc45)cc23)cc1` displayed an IFI of 1.89%.
On to `CCN1CCC(N(CCCCCCCCc2ccc(C(F)(F)F)cc2)C(=O)Cn2c(CCc3cccc(F)c3F)cc(=O)c3ccccc32)CC1`, for which the IFI amounted to 8.51%.
As to `O=C(NCCCCCN1CCC(c2c[nH]c3ccccc23)CC1)Nc1ccc(I)cc1`, the IFI was 7.09%.
As to `Cc1cc2c(cc1C(F)(F)F)N(C(=O)Nc1cc(OCCN(C)C)cc(C(F)(F)F)c1)CC2`, the IFI worked out at 9.46%.
Under `C[C@H](Cc1ccc(CCc2ccc(C[C@@H](C)NC[C@H](O)c3cccc(Cl)c3)cc2)cc1)NC[C@H](O)c1cccc(Cl)c1` stands 21.6%; under `COc1c(C2CCN(CCCCNC(=O)C=Cc3cc4cc(Cl)ccc4o3)CC2)ccc2c1CCCC2`, 5.43%; under `COc1ccccc1-c1csc(C(=O)NCC2CCN(Cc3ccc(C(C)(C)C)cc3)C2)c1` (centres undefined), 13.5%.
In turn, `COC(=O)c1cc(NC(=O)Nc2ccc(Cn3ncc(N4CCCNCC4)c(Cl)c3=O)cc2)cc(C(=O)OC)c1` yielded an IFI of 4.48%.
In the case of `Cc1cccc2nc(-c3ccc(-c4cccc(NC(=O)c5cccc(C(N)=O)c5)c4)cc3)[nH]c12` it was 7.02%; in that of `O=C1NC(C(=O)Nc2ccccc2)C(c2ccccc2)S1` (centres undefined), -0%.
In the case of `CCCc1cc(OC)c(CC2c3cc(O)c(Cl)cc3CCN2C)cc1OC` (centres undefined) it was 2.8%; in that of `O=C(Nc1ccc(Cl)cc1Cl)N[C@H]1CCN(CCCCCNC(=O)C2CC2c2ccc(Cl)c(Cl)c2)C1` (some centres undefined), 15.1%.
Turning to `CC(=O)Nc1ccc(C(=O)Nc2ccc(-c3cccc(-c4nc5cc(F)ccc5[nH]4)c3)cc2)cn1`, the IFI was determined as 2.7%.
In the case of `c1ccc2sc(-c3csc(Nc4ccncc4)n3)nc2c1`, the IFI was found to be 4.11%.
`CC(C)(C)CC(=O)Nc1ccc(Nc2cc(-c3ccncc3)cc3ncc(C(N)=O)cc23)cc1` displayed an IFI of 2.16%.
Consider `COCCNCc1cccc(-c2cccc(CNC3CCN(Cc4ccccc4)CC3)c2)c1`, for which the IFI was determined as 5.07%.
Under `COc1cc2nc(SCC(C)C)n(CCCn3ccnc3)c(=N)c2cc1OC` stands 1.34%.
The molecule `O=C(C=Cc1ccc(Cl)c(Cl)c1)NCCCCCN1CCCC(CCCNC(=O)c2cccs2)C1` (centres undefined) registered an IFI of 2.29%.
Molecule `COc1ccccc1N1CCN(c2cccc(F)c2C#N)CC1` yielded an IFI of 2.22%.
As for `CN1CCN(c2ccnc3ccc(NC(=O)Nc4ccc(-c5ccncc5)c5ccccc45)cc23)CC1`, the IFI turned out to be 4.41%.
Under `N#Cc1ccc(N2CCN(C(=O)c3cccc(-c4noc(C(F)(F)F)n4)c3)CC2)nc1` stands 3%.
`Cc1noc(C)c1-c1cccc(CNCc2cccc(-c3ccc(-c4nc5cccc(C)c5[nH]4)cc3)c2)c1` displayed an IFI of 4.85%.
Molecule `Cc1cnc(Nc2ccccc2)nc1N[C@@H](CCCN)C(=O)Nc1ccccc1` displayed an IFI of 2.38%.
In the case of `Cc1ccc(CNc2cc(C(F)(F)F)nc(-c3ccc(S(C)(=O)=O)cc3)n2)cc1`, the IFI stood at 2.24%.
Molecule `CC(CNC(=N)c1cccc(C(=N)NCC(C)Oc2cccc(C3CCCCC3)c2)n1)Oc1cccc(C2CCCCC2)c1` (centres undefined) registered an IFI of 17.7%.
In turn, `COCCNC(=O)C1CCN(C(c2ccc(Cl)cc2)c2ccc(Cl)cc2)CC1` returned an IFI of 1.39%.
For the molecule `COCCn1c(Sc2ccc(C#N)c([N+](=O)[O-])c2)nnc1-c1ccc(N(C)C)cc1`, the IFI amounted to 1.43%.
Turning to `O=C(Nc1cccc(-c2cccc(-c3nc4ccccc4[nH]3)c2)c1)Nc1ccc(Cl)c(Cl)c1`, the IFI stood at 4%.
In the case of `CC(C)N(Cc1ccccc1)C(=O)CN1C(=O)COc2ccc(S(=O)(=O)N3CCCCCC3)cc21` it was 2.27%; in that of `Oc1ccc(CCNc2nc(NCCOc3cccc4ccccc34)nc(N3CCNCC3)n2)cc1`, 16.4%.
Under `CCSc1nc2sc3c(c2c(=O)n1-c1ccccc1)CCN(C)C3` stands 1.43%.
For `CC(C)(C)SCC(O)Cn1c2ccc(Br)cc2c2cc(Br)ccc21` (centres undefined), the IFI turned out to be 2.19%.
For `O=C(Nc1ccc2[nH]c(-c3ccccc3)nc2c1)c1cc(-c2ccc3c(c2)OCCO3)n[nH]1`, the IFI is 5.66%.
Take `Cc1cc(N(C)C)nc(Nc2ccc(NC(=O)c3c(F)cccc3Cl)cc2)n1`: the IFI stood at 1.89%.
Molecule `O=C(/C=C/c1ccccc1Cl)Nc1ccc(Br)c(OCCN2CCN(CCN3CCCC3)CC2)c1` came in with an IFI of 5.04%.
Molecule `COc1c(Br)cc(Br)cc1-c1ccc(CN2C3CCCC2CCC3)[nH]1` came in with an IFI of 6.82%.
The molecule `NCC(=O)Nc1cccc(Nc2nccc(-c3c(-c4cccc(NC(=O)c5ccccc5)c4)nn4ccccc34)n2)c1` displayed an IFI of 12.6%.
As for `CC(=NNC(S)=NC(C)(C)C)c1ccccn1`, the IFI turned out to be 3.79%.

The record behind these values is ChEMBL document CHEMBL1157539, “Thousands of chemical starting points for antimalarial lead identification” (Nature, 2010).
